“And” between values parts separate entries of the source, which are not always exact repeats. Equal values may be shown once. Among all 48,000 compounds or so, about 1,200 (2.5%) were called active. Inconclusive results (about 2%) are left out.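 Rule for the calls: active = activation of at least 60% and not above a set upper limit (about 1 call in 100 departs from these limits); inconclusive = activation of 40% to 60%, or above that upper limit; inactive = activation under 40%.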 Some of the results follow.
Each compound was assayed against Probable G-protein coupled receptor 32 (Homo sapiens) (UniProt O75388) (assay: qHTS for Agonists of Human Resolvin D1 Receptor DRV1). Conditions: CHO-K1 GPR32 beta-arrestin PathHunter luminescence, 90 min; at 76.9 µM; hits give high values; zero percent set by DMSO-only wells.
Sequence of UniProt O75388 (O75388 whole entry, looked up): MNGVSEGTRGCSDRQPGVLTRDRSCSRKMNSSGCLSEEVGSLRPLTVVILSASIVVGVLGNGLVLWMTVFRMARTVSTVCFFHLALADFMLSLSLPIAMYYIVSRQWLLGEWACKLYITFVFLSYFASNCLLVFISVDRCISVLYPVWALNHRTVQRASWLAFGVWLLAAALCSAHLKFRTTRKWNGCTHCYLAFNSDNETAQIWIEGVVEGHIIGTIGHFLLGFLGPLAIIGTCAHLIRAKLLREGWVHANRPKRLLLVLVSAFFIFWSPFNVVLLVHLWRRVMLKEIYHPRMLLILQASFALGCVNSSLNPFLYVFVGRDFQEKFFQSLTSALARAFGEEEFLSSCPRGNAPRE
Summary of the method: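 Using DMSO wells as EC0, agonist-induced signal was taken as chemiluminescence from beta-Gal reconstituted upon beta-arrestin recruitment to GPR32 in CHO-K1 cells after 90 min compound treatment.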
For `COc1ccc(Cn2c(NCC(C)C)nc3c2c(=O)n(C)c(=O)n3C)cc1`, the activation was inactive: -4.27%.
With `O=C(CSc1oc(-c2cccs2)nc1S(=O)(=O)c1ccccc1)Nc1ccc(F)cc1` the activation was inactive: -19.6%.
With `CN(C(=O)CSc1nc2ccc(NC(=O)c3ccccc3)cc2s1)c1ccccc1` the activation was inactive: 9.51%.
In the case of `CCOc1ccccc1/C=C/c1onc(C)c1S(=O)(=O)N1CCC(C(=O)N2CCCCC2)CC1`, the activation is reported as inactive: -4.61%.
For `COc1ccc(OC)c(CNC(=O)c2cnc(N(C)C)nc2)c1`, the activation was inactive: 3.46%.
In the case of `CCOC(=O)CSc1nc(-c2ccc(OC)cc2)cc(C(F)(F)F)c1C#N`, the activation is reported as inactive: -3.57%.
In the case of `Cc1ccc(-n2nc(C)c3c(C(=O)Nc4ccc(C)cc4Cl)cc(C)nc32)cc1`, the activation is reported as inactive: -2.26%.
`COc1cc(CN(C(=O)c2ccc(C)cc2)c2ccccn2)cc(OC)c1OC` was tested, and the activation was inactive: 18.2%.
For `COc1ccc(C(=O)CC2(O)C(=O)N(CCc3ccccc3)c3ccc(Br)cc32)cc1OC` (stereo not given), the activation was inactive: -17%.
`COc1cccc(-n2c(=O)c3c4c(sc3n(Cc3ccccc3C#N)c2=O)CCCC4)c1` was tested, and the activation was inactive: -0.855%.
For `Cc1ccccc1-c1noc(-c2ccc(NC3CCCC3)c([N+](=O)[O-])c2)n1`, the activation was inactive: -7.81%.
With `O=C(Cn1nc2c(cc1=O)CCCC2)NCc1ccccc1` the activation was inactive: -4.88%.
With `COc1ccc(-n2nc(C(=O)N3CCN(c4cccc(C)c4)C(C)C3)c3c4ccccc4n(C)c3c2=O)cc1Cl` (stereo not given) the activation was inactive: 2.34%.
In the case of `O=S(=O)(c1ccc2nc(Nc3ccc(Br)cc3F)ccc2c1)N1CCCC1`, the activation is reported as inactive: -12.4%.
`CCOC(=O)c1cnc2ccc(OC(F)(F)F)cc2c1Nc1ccccc1C(=O)O` was tested, and the activation was inactive: -5.97%.
For `CCC1Oc2ccc(C)cc2N(CC(=O)NCCc2ccccc2)C1=O` (stereo not given), the activation was inactive: -18.4%.
For `COc1cccc(/C=C/c2nc(C#N)c(N3CCCCCC3)o2)c1`, the activation was inactive: -6.24%.
In the case of `Cc1ccc(NC(=O)CCCN2C(=O)COc3ccc(C)cc32)c(Cl)c1`, the activation is reported as inactive: -22.8%.
For `CCOC(=O)c1cnn2c(C(F)(F)F)cc(-c3ccc(Br)cc3)nc12`, the activation was inactive: -7.07%.
In the case of `COc1ccc(-c2cnc(C)o2)cc1S(=O)(=O)Nc1cccc(C(F)(F)F)c1`, the activation is reported as inactive: -5.47%.
`O=C(Nc1cccc(C(F)(F)F)c1)C1CCN(S(=O)(=O)c2cccc3nsnc23)CC1` was tested, and the activation was inactive: 14%.
For `Cc1ccccc1-c1noc(CSc2nc(-c3ccc(F)cc3)cc(=O)[nH]2)n1`, the activation was inactive: -7.1%.
With `COc1ccc(-n2nnnc2SCC(=O)NCCc2ccccc2)cc1` the activation was inactive: -12.4%.
`COC(=O)Cc1c(C)c2ccc3c(c2oc1=O)CN(Cc1ccc(C)cc1)CO3` was tested, and the activation was inactive: -11.2%.
In the case of `O=C(Nc1ccc(OCc2cc(=O)n3c4c(sc3n2)CCCC4)cc1)c1ccc(F)cc1`, the activation is reported as inactive: -3.32%.
For `Cc1ccc(NC(=O)Cn2nc(C(F)(F)F)c3c2CCC3)cc1C`, the activation was inactive: -8.28%.
In the case of `CC(C)COc1ccc(C(=O)Nc2onc3c2CCCC3)cc1`, the activation is reported as active: 114%.
In the case of `CCOc1ccc(CCNC(=O)CCn2c(=O)c3cccn3c3ccc(F)cc32)cc1`, the activation is reported as inactive: -15.2%.
For `NC(=O)C1CCN(c2ncnc3c2cnn3-c2cccc(Cl)c2)CC1`, the activation was inactive: 10.7%.
With `COc1ccc(-c2noc(-c3ccc(NCc4ccco4)c([N+](=O)[O-])c3)n2)cc1OC` the activation was inactive: -7.22%.
In the case of `Cc1cccc(CNC(=O)CCCN2C(=O)c3cccnc3Oc3ccccc32)c1`, the activation is reported as inactive: -12.8%.
For `CCOc1ccc(C(=O)NCCc2sc(-c3cccc(F)c3)nc2C)cc1OCC`, the activation was inactive: -0.823%.
With `CCc1ccc(N2CC(c3nc4ccccc4n3Cc3ccccc3C)CC2=O)cc1` (stereo not given) the activation was inactive: -26.2%.
`Cc1cccc(Cn2c(CNC(=O)c3ccccc3)nc3ccccc32)c1` was tested, and the activation was inactive: 5.7%.
With `CC(C)OCCCNC(=O)c1c2c(nc3ccccc13)C(=O)N(C1CCCCC1)C2` the activation was inactive: -8.54%.
In the case of `Cc1ccn2c(Nc3ccc(C(C)C)cc3)c(-c3ccsc3)nc2c1`, the activation is reported as inactive: -21.7%.
`CC(=O)c1ccc(NC(=O)CSc2nnc(NC(=O)NC3CCCCC3)s2)cc1` was tested, and the activation was inactive: -0.609%.
With `Cc1cc(C)cc(Nc2ncnc3sc4c(c23)CCCC4)c1` the activation was inactive: -6.1%.
`Cc1cc(C)c(NC(=O)Nc2sc3nc4n(c(=O)c3c2C)CCC(C)CC4)c(C)c1` (stereo not given) was tested, and the activation was inactive: -10.5%.
In the case of `CCOC(=O)c1cc(-c2ccccc2)n(CC(=O)Nc2cc(Cl)c(OC)cc2OC)c1C`, the activation is reported as inactive: -10.8%.
For `Cc1ccc(Nc2c(-c3ccc(N4CCOCC4)cc3)nc3ncccn23)c(C)c1`, the activation was inactive: -35.6%.
`COCCNC(=O)CCSc1nc(-c2ccc(OC)cc2)cc(C(F)(F)F)n1` was tested, and the activation was inactive: -2.18%.
In the case of `Cc1nn(C(C)C(=O)Nc2cccc(F)c2)c(=O)c2c1sc1ccccc12` (stereo not given), the activation is reported as inactive: -24%.
With `CCCCCOc1ccccc1Cn1c(=O)oc2ccc(C)cc21` the activation was inactive: -10.8%.
`O=C(NC1CCCC1)c1ccc(CSc2nc3cccnc3n2Cc2ccccc2F)cc1` was tested, and the activation was inactive: 4.42%.
With `Cc1ccccc1C(OCCN(C)C)c1ccccc1` (stereo not given) the activation was inactive: 30.1% and inactive: -6.44%.
For `CC1CCCN(Cc2c(O)ccc3c(=O)c(-c4ccccc4Cl)c(C(F)(F)F)oc23)C1` (stereo not given), the activation was inactive: -24.7%.
For `O=C(Cn1c(-c2cccs2)cc2ccccc21)NCCCN1CCN(c2ccc(F)cc2)CC1`, the activation was inactive: -20.2%.
In the case of `Cc1cc(C)c(NS(=O)(=O)c2ccc3c(c2)NC(=O)CCS3)c(C)c1`, the activation is reported as active: 83.2%.
`Cc1c(I)c(=O)n(-c2ccccc2)n1C` was tested, and the activation was inactive: 3.7%.
For `O=C(COc1ccc(Cl)cc1)N(Cc1ccco1)c1ccccn1`, the activation was inactive: -4.71%.
With `CCOc1ccc(OCC)c(NS(=O)(=O)c2ccc3c(c2)CCCN3C(C)=O)c1` the activation was inactive: -13.5%.
With `CCc1nnc(NC(=O)c2nc(SCc3ccc(F)cc3)ncc2Cl)s1` the activation was inactive: 48.7%.
In the case of `O=C(O)/C=C\C(=O)O`, the activation is reported as inactive: 10.4%.
With `O=C(OCC1CCCO1)c1ccc2c(c1)N(Cc1c(F)cccc1Cl)C(=O)c1ccccc1S2(=O)=O` (stereo not given) the activation was inactive: -2.94%.
`Nc1ncnc2c1ncn2[C@@H]1O[C@H](COP(=O)(O)CP(=O)(O)OP(=O)(O)O)[C@@H](O)[C@H]1O` was tested, and the activation was inactive: 1.13%.
With `CCCCn1c(C2CC(=O)N(c3ccc(OCC)cc3)C2)nc2ccccc21` (stereo not given) the activation was inactive: -8.5%.
In the case of `COCC(C)NC(=O)C1=CC(c2ccc3c(c2)OCO3)=NS(=O)(=O)N1C` (stereo not given), the activation is reported as inactive: -5.4%.
`Cc1cc(C)c(NC(=O)c2ccc3nc(C(C)C)oc3c2)c(C)c1` was tested, and the activation was inactive: -8.47%.
In the case of `CCOCCn1c(=NC(=O)c2ccc3c(c2)OCCO3)sc2cc(OCC)ccc21`, the activation is reported as inactive: -7.51%.
With `NCCNS(=O)(=O)c1cccc2c(Cl)cccc12` the activation was inactive: -4.64%.
`CCN(CC)S(=O)(=O)c1ccc2c(c1)c(=O)c(C(=O)N1CCN(c3cc(C)ccc3C)CC1)cn2C` was tested, and the activation was inactive: 3.67%.
For `O=C(Cn1cc(SCc2ccc(F)cc2)c2ccccc21)N1CCCC1`, the activation was inactive: -21.8%.
In the case of `Cc1cccc(S(=O)(=O)c2cn(Cc3ccc(F)cc3)c3cc(N4CCOCC4)c(F)cc3c2=O)c1`, the activation is reported as inactive: -6.39%.
With `Cc1ccc(Cl)cc1N1CCN(C(=O)c2cnc3c(-c4ccc(F)cc4)c(C)nn3c2C)CC1` the activation was inactive: -9.36%.
`O=C(Nc1ccccc1C(F)(F)F)C1CCN(c2nnc(-n3cccc3)s2)CC1` was tested, and the activation was inactive: -6.9%.
For `COc1ccc(S(=O)(=O)N2CCC(c3nnnn3-c3ccccc3)CC2)cc1OC`, the activation was inactive: 1.32%.
In the case of `CCC(C(=O)NC1CCCCC1)n1nc(C)c2sc3ccccc3c2c1=O` (stereo not given), the activation is reported as inactive: -3.77%.
With `CSc1ccc(-c2nc3cc(C)ccn3c2Nc2ccc(C)cc2)cc1` the activation was inactive: 0.977%.
In the case of `Cc1cccc(-c2nc(S(=O)(=O)c3ccccc3)c(N3CCN(c4ccccc4)CC3)o2)c1`, the activation is reported as inactive: -12.7%.
For `O=C(CSc1nc2c(c(=O)[nH]1)CCC2)Nc1cc(C(F)(F)F)ccc1Cl`, the activation was active: 82.6%.
In the case of `CCc1ccc(NC(=O)C(=O)NCCc2sc(-c3ccc(C)cc3)nc2C)cc1`, the activation is reported as inactive: -5.8%.
For `COc1ccc(NCc2cccn2-c2nnc(N3CCC(C)CC3)s2)c(OC)c1`, the activation was inactive: -19.8%.
With `CC(C)C[C@H]1C(=O)N2CCC[C@H]2[C@]2(O)O[C@](NC(=O)[C@@H]3C=C4c5cccc6[nH]c(Br)c(c56)C[C@H]4N(C)C3)(C(C)C)C(=O)N12` the activation was inactive: -10.3%.
In the case of `Cn1ccc2c(OCC(=O)NCc3ccc(F)cc3)cccc2c1=O`, the activation is reported as active: 68.1%.
For `CCOC(=O)c1cc(S(=O)(=O)Nc2cc(C)c(Cl)cc2OC)[nH]n1`, the activation was inactive: -4.91%.
For `Cc1ccc(C(=O)c2cn(Cc3ccccc3)c3cc4c(cc3c2=O)OCCO4)cc1`, the activation was inactive: 16.7%.
`CCc1cccc(NC(=O)CSc2nccn2C)c1` was tested, and the activation was inactive: 7.11%.
With `COc1c(Cl)cc(Cl)cc1C(=O)Nc1cccc2cccnc12` the activation was inactive: 11.4%.
With `CCOC(=O)c1ccc(N2C(=O)c3n[nH]c(C)c3C2c2ccccc2OC)cc1` (stereo not given) the activation was inactive: 10.6%.
In the case of `N#Cc1ccc(C(=O)NCc2ccc3c(c2)CCN3C(=O)c2ccc(F)cc2)cc1`, the activation is reported as inactive: -21.2%.
With `CCc1ccc2oc(C(=O)Nc3c(C)n(C)n(-c4ccccc4)c3=O)cc(=O)c2c1` the activation was inactive: -0.806%.
In the case of `Cc1ccccc1Cn1c2ccccc2c2cnn(CC(=O)NC(C)CCc3ccccc3)c(=O)c21` (stereo not given), the activation is reported as inactive: 5.13%.
In the case of `COC(=O)c1ccc(NC(=O)CN(CCc2ccccc2)S(=O)(=O)c2ccc(OC)cc2)cc1`, the activation is reported as inactive: -26.8%.
In the case of `Cc1cccc(CCNc2ncnc3onc(-c4ccc(Cl)cc4)c23)c1`, the activation is reported as inactive: 11.2%.

From PubChem BioAssay AID1346428 (National Center for Advancing Translational Sciences (NCATS), 2018)
Note: 0% is about no effect.
